Sequences and labels used below:
T1: RBFOX1 RRM RbFoxmut (Fox-RRM*) (Homo sapiens, UniProt Q9NWB1 109-208, R118D;E147R;N151S;E152T)
T1 sequence: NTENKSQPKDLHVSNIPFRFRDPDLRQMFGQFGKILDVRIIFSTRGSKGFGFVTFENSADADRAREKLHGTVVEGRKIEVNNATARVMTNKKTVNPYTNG

B1: CCGGUCU (DNA:RNA)
RNA: GGGAGACCGGAAUUCAGAUUGUCCCCGGUCUUUAAAUCCCGUCGUAGCCACCA
DNA 1: CAATCTGAATTCCGGTCTCCC
DNA 2: TGGTGGCTACGACGGGATT
B2: AUUAAAA (DNA:RNA)
RNA: GGGAGACCGGAAUUCAGAUUGUCCAUUAAAAUUAAAUCCCGUCGUAGCCACCA
DNA 1: CAATCTGAATTCCGGTCTCCC
DNA 2: TGGTGGCTACGACGGGATT
B3: AAGCUCC (DNA:RNA)
RNA: B1 RNA with C25A, C26A, G28C, U31C
DNA 1: CAATCTGAATTCCGGTCTCCC
DNA 2: TGGTGGCTACGACGGGATT
B4: ACUUAAU (DNA:RNA)
RNA: B2 RNA with U26C, A28U, A31U
DNA 1: CAATCTGAATTCCGGTCTCCC
DNA 2: TGGTGGCTACGACGGGATT
B5: CGCCCGC (DNA:RNA)
RNA: B1 RNA with C26G, G27C, G28C, U29C, C30G, U31C
DNA 1: CAATCTGAATTCCGGTCTCCC
DNA 2: TGGTGGCTACGACGGGATT
B6: AACCGGG (DNA:RNA)
RNA: B2 RNA with U26A, U27C, A28C, A29G, A30G, A31G
DNA 1: CAATCTGAATTCCGGTCTCCC
DNA 2: TGGTGGCTACGACGGGATT
B7: GUGGCGG (DNA:RNA)
RNA: B1 RNA with C25G, C26U, U29C, C30G, U31G
DNA 1: CAATCTGAATTCCGGTCTCCC
DNA 2: TGGTGGCTACGACGGGATT
B8: AACCGCC (DNA:RNA)
RNA: B2 RNA with U26A, U27C, A28C, A29G, A30C, A31C
DNA 1: CAATCTGAATTCCGGTCTCCC
DNA 2: TGGTGGCTACGACGGGATT
B9: CGAACCA (DNA:RNA)
RNA: B2 RNA with A25C, U26G, U27A, A29C, A30C
DNA 1: CAATCTGAATTCCGGTCTCCC
DNA 2: TGGTGGCTACGACGGGATT

Positions count from the first letter of the chain named. The list shows a part of the results.

The target in this experiment is T1, RBFOX1 RRM RbFoxmut (Fox-RRM*). Put plainly: EMSA; HiTS-Eq, 1 nM pool, 10 min; buffer printed only for the single-RNA assays: 10 mM Tris pH 7.5, 150 mM NaCl, 3.4 mM EDTA, 0.001% NP-40, 30 C. The conditions noted are these: tags: His6 N-terminal (pET28a); label: 5' 32P. The procedure, abridged: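 Relative association constants, normalised to the cognate motif, were derived by comparing read counts of each RNA species with those of the control reaction. The RNA sequenced was the free fraction, separated by 8% native PAGE after a 10 min equilibration in 50 µL of 1 nM 5′-radiolabelled RNA (7 randomized nucleotides) with increasing concentrations of purified wild-type or mutant RbFox RRM.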
In the case of B1, the binding signal was 0.0567 KA relative to UGCAUGU.
Take B2: the binding signal is 0.138 KA relative to UGCAUGU.
Turning to B3, the binding signal was 0.0504 KA relative to UGCAUGU.
Consider B4, for which the binding signal was 0.0831 KA relative to UGCAUGU.
With B5 the figure was 0.114 KA relative to UGCAUGU; with B6, 0.0473 KA relative to UGCAUGU; with B7, 0.102 KA relative to UGCAUGU.
With B8, the binding signal was 0.0692 KA relative to UGCAUGU.
As for B9, the binding signal is 0.072 KA relative to UGCAUGU.

(Values after paper PMC9911399, “Two distinct binding modes provide the RNA-binding protein RbFox with extraordinary sequence specificity”.)
